Measured values taken from the antibiotic and cytotoxicity screens of Wong et al. (2023).
This is one part of the list.

How the values were obtained:
HSkMC = human skeletal muscle cells; experiment: cytotoxicity call (relative viability < 0.9); conditions: 10 µM
HepG2 = experiment: cytotoxicity call (relative viability < 0.9); conditions: 10 µM
S. aureus RN4220 = experiment: growth inhibition call (relative growth <= 0.2); conditions: 50 µM

Compound | cytotoxicity call (HSkMC) | cytotoxicity call (HepG2) | growth inhibition call (S. aureus RN4220)
C[C@@H]1CN([C@@H](C)CO)C(=O)c2cccc(NC(=O)CCCCCC(=O)Nc3ccccc3N)c2O[C@@H]1CN(C)CC1CCCCC1 | inactive | active | inactive
Cc1ccc(S[C@]2(C(=O)NCCCN(C)C)CC(=O)N(Cc3ccccc3C(F)(F)F)[C@@H]2c2ccc(CO)cc2I)cc1 | inactive | inactive | inactive
C[C@H]1CCCCO[C@@H](CN(C)Cc2ccccc2)[C@@H](C)CN([C@@H](C)CO)C(=O)c2cc(NC(=O)Nc3ccc(C(F)(F)F)cc3)ccc2O1 | active | active | inactive
O=C(C[C@H]1CC[C@@H](NS(=O)(=O)c2ccccc2)[C@H](CO)O1)NCc1ccncn1 | inactive | inactive | inactive
C[C@@H]1CCCCO[C@@H](CN(C)S(=O)(=O)c2cccs2)[C@H](C)CN([C@@H](C)CO)C(=O)c2cc(NC(=O)C3CCCCC3)ccc2O1 | inactive | inactive | inactive
COc1cccc(NC(=O)N2C[C@H](O)COC[C@H]3O[C@H](CC(=O)NCc4ccccc4F)CC[C@@H]32)c1 | inactive | inactive | inactive
C[C@@H]1CN([C@@H](C)CO)S(=O)(=O)c2ccc(C#Cc3ccccc3)cc2O[C@@H]1CN(C)S(=O)(=O)c1cn(C)cn1 | inactive | inactive | inactive
C=CCC[C@@H](Cc1ccc(F)cc1)C(=O)OC[C@@H](NC(=O)[C@@H](CC=C)CC(=O)N(CCO)Cc1ccccc1)C(C)(C)C | inactive | inactive | inactive
CC(C)c1ccc(/C=C/C(=O)Nc2nc3ccccc3s2)cc1 | inactive | inactive | inactive
CC(C)NC(=O)Nc1ccc2c(c1)C(=O)N([C@@H](C)CO)C[C@H](C)[C@H](CN(C)C(=O)Nc1ccc3c(c1)OCO3)O2 | inactive | inactive | inactive
Cc1cccn2c(=O)c(-c3nn[nH]n3)cnc12 | inactive | inactive | inactive
C[C@H](CO)N1C[C@H](C)[C@@H](CN(C)C(=O)Nc2ccc3c(c2)OCO3)OCCCC[C@H](C)Oc2ccc(NS(=O)(=O)c3ccc(F)cc3)cc2C1=O | inactive | inactive | inactive
CC(CO)(CO)NC(=O)NC1CCCCC1 | inactive | inactive | inactive
O=C(C[C@@H]1CC[C@H]2[C@@H](COC[C@H](O)CN2Cc2ccccc2F)O1)N[C@@H]1CCN(Cc2ccccc2)C1 | inactive | inactive | inactive
Nn1c(Nc2ccc(Cl)cc2)nncc1=O | inactive | inactive | inactive
CC1CC2C(C(O)CC3(C)C2CCC3(O)C(=O)COC(=O)CCC(=O)[O-])C2(C)C=CC(=O)C=C12.[Na+] (stereo not drawn) | inactive | inactive | inactive
CN(C)C(=O)C[C@H]1C=C[C@H](NC(=O)C2CCOCC2)[C@@H](CO)O1 | inactive | inactive | inactive
COc1ccc(S(=O)(=O)N(C)C[C@@H]2Oc3ccc(NC(=O)c4ccncc4)cc3CC(=O)N([C@H](C)CO)C[C@H]2C)cc1 | inactive | inactive | inactive
Cc1ccc(S(=O)(=O)Nc2ccc3c(c2)C(=O)N([C@H](C)CO)C[C@@H](C)[C@H](CN(C)S(=O)(=O)c2ccc(F)cc2)O3)cc1 | inactive | inactive | inactive
COc1ccc(S(=O)(=O)Nc2ccc3c(c2)C(=O)N([C@@H](C)CO)C[C@@H](C)[C@@H](CN(C)Cc2ccc(Cl)c(Cl)c2)O3)cc1 | active | active | inactive
C[C@@H]1CCCCO[C@@H](CN(C)C(=O)Nc2ccc(F)cc2)[C@H](C)CN([C@H](C)CO)C(=O)c2cc(NC(=O)C3CCCCC3)ccc2O1 | inactive | inactive | inactive
C/C=C/c1ccc([C@H]2[C@H](CO)N(S(=O)(=O)Cc3ccccc3)C23CN(C(=O)C2CCOCC2)C3)cc1 | inactive | inactive | inactive
C[C@@H]1CN([C@H](C)CO)S(=O)(=O)c2ccc(C#CCN(C)C)cc2O[C@@H]1CN(C)C(=O)CN(C)C | inactive | inactive | inactive
C[C@@H]1CN([C@H](C)CO)C(=O)c2cc(NS(=O)(=O)c3ccc(Cl)cc3)ccc2O[C@@H](C)CCCCO[C@H]1CN(C)Cc1ccc(C(F)(F)F)cc1 | active | active | inactive
COc1ccc(cc1)CN1CC[C@]2(CC1)CN([C@@H](CO)c1[nH]c3cc(ccc3c12)OC)C(=O)CN(C)C | inactive | inactive | inactive
Cc1ccc(S(=O)(=O)Nc2cccc3c2O[C@H](CN(C)Cc2ccc(C(F)(F)F)cc2)[C@H](C)CN([C@H](C)CO)C3=O)cc1 | inactive | inactive | inactive
